# Reference: the RNAGym collection of RNA variant scans (doi:10.7554/elife.90254)
# The source gives no read counts; variants with many changes may rest on few reads.
# B1: LINE1-full (parent)
# chain: UACGUAGGUGGUUUUCCCCUGAUAGUGCUAAGGGGGCCUGGAAGUUUGGACUGGGCAGAGCUCAACACAGCGUGGCAAAGUGGCUGUGGCUAGACUGCCUCUCUGGAUUCCUCGUCACUCAGCAGGGCAUCUCUGAGAGAAAUGCC
# Variants of: B1
# Assay: self-cleavage, relative activity (ratio to wild type); higher = more cleavage; in vitro, sequencing; the parent is a self-cleaving ribozyme
row,Variant,self-cleavage
1,UACGUAGGUGGCUUUCCCCUGAUAGUGCUAGGGGGGCCUGGAAGUUUGGACUGGGCAGAGCUCAACACAGCGUGGCAAAGUGGCUGUGGCUAGACUGCCUCUCUGGAUUCCUCGUCACUCUGCAGGGCAUCUCUGAGAGAAAUGCC [U12C A31G A121U],1.34
2,UACGUAGGUGGCUUUCCCCUGAUAGUGCUAGGGGGACCUGGAAGUUUGGACUGGGCAGAGCUCAACACAGCGUGGCAAAGUGGCUGUGGCUAGACUGCCUCUCUAGAUUCCUCGUCACUCAGCAGGGCAUCUCUGAGAGAAAUGCC [U12C A31G G36A G105A],1.33
3,UACGUAGGUGGCUUUCCCCUGAUAGUGCUAAGGGGGCCUGGGUGUUUGGACUGGGCAGAGCUCAACACAGCGUGGCAAAGUGGCUGUGGCCAGACUGCCUCUCUGGAUUCCUCGUCACUCAGCAGGGCAUCUCUGAGAGAAAUGCC [U12C A42G A43U U91C],1.6
4,UACGUAGGUGGCUUUCCCCUGAUAGUGCUAAGGGGGCCUGGGAGUAUGGACUGGGCAGAGCUCAACACAGCGUGGCAAAGUGGCUGUGGCCAGACUGCCUCUCAGGAUUCCUCGCCACUCAGCAGGGCAUCUCUGAGAGGAAUGCC [U12C A42G U46A U91C U104A U115C A140G],0.71
5,UACGUAGGUGGCUUUCCCCUGAUAGUGCUAAGGGGGCCUGGGAGUUCGGACUGGGCAGAGCCCAACACAGCGUGGCAAAGUGGCUGUGGCUAGACUGCCUCUCUGGAUUCCUCGUCACUCAGCAGGGCAUCUCUGAGAGAGAUGCC [U12C A42G U47C U62C A141G],0
6,UACGUAGGUGGCUUUCCCCUGAUAGUGCUAAGGGGGCCUGGGAGUUUGGACUGGGCAGAGCUCAACACAGCGUGGCAAAGUGGCUGUGGCUAGACUGCCUCUCUGGAUUCCCCGUCACUCAGCAGGGCAUCUCUGAGAGUAAUGCC [U12C A42G U112C A140U],2.18
7,UACGUAGGUGGCUUUCCCCUGAUAGUGCUAAGGGGGCCUGGUAGUUUGGACUGGGCAGAGCUCAACACAGCGUGGCGAAGUGGCUGUGGCGAGACUGCCUCUCUGGAUUCCUCGUCACUCAGCAGGGCAUCUCUGAGAGAAAUGCC [U12C A42U A77G U91G],0
8,UACGUAGGUGGCUUUCCCCUGAUAGUGCUAAGGGGGCCUGGAGGUUUGGACUGGGCAGAGCUCAACACUGCGUGGCAAAGUGGCUGUGGCUAGACUGCCUCUCUGGAUUCCUCGUCACUCAGCAGGGCAUCACUGAGAGAAAUGCC [U12C A43G A69U U132A],0.21
9,UACGUAGGUGGCUUUCCCCUGAUAGUGCUAAGGGGGCCUGGAUGCUUGGACUGGGCAGAGCUCAACACAGCGUGGCAAAGUGGCUGUGGCUAGACUGCCUCUCUGGAUUCCUCGACACUCAGCAGGGCAUCUCUGAGAGAAAUGCC [U12C A43U U45C U115A],1.2
10,UACGUAGGUGGCUUUCCCCUGAUAGUGCUAAGGGGGCCUGGAAGUUUGGGCUGGGCAGAGCUCAACACAGCGUGGCAGAGUGGCUGUGGCUAGACUGCCUCUCUGGAUUCCUCGUCACUCAGCAGGGCAUCUCUGAGAGAAAUGCC [U12C A50G A78G],0.81
11,UACGUAGGUGGCUUUCCCCUGAUAGUGCUAAGGGGGCCUGGAAGUUUGGGCUGGGCAGAGCUCAAGACAGCGUGGCAAAGUGGCUGUGGCUAGACUGCUUCUCUGGAUUCCUCGUCACUCAGCAGGGCAUCUCUGAGAGAAAUGCC [U12C A50G C66G C99U],0.2
12,UACGUAGGUGGCUUUCCCCUGAUAGUGCUAAGGGGGCCUGGAAGUUUGGGCUGGGCAGAGCUCAACACAGUGUGGCAAAGUGGCUGUGGCUAGACUGCCUCUCUGGAUUCCUCGUCACUCAGCAGGGCAUCUCUGAGAGAAAUGCC [U12C A50G C71U],0.32
13,UACGUAGGUGGCUUUCCCCUGAUAGUGCUAAGGGGGCCUGGAAGUUUGGGCUGGGCAGAGCUCAACACAGCGUGGCAAAGUGGCAGUGGCUAGACUGCCUCUCUGGAUUCCUCGUCACUCAGCAGGGCAUCUCUGAGAGAAGUGCC [U12C A50G U85A A142G],0.06
14,UACGUAGGUGGCUUUCCCCUGAUAGUGCUAAGGGGGCCUGGAAGUUUGGUCUGGGCAGAGCUCUACACAGCGUGGCAAAGUGGCUGUGGCUAGACUGCCUCUCUGGAUUCCUCGUCACUCAGCAGGGCAUCUCUGAGAGAAAUGCC [U12C A50U A64U],0.35
15,UACGUAGGUGGCUUUCCCCUGAUAGUGCUAAGGGGGCCUGGAAGUUUGGUCUGGGCAGAGCUCAACACAGCGUGGCAAAGUGGCUGUGGCUAGACUGCCUCUCUGGAUUCCUCGUCUCUCAGCAGGGCAUCUCUGAGAGAAAUGCC [U12C A50U A117U],1.38
16,UACGUAGGUGGCUUUCCCCUGAUAGUGCUAAGGGGGCCUGGAAGUUUGGACUGGGCGGAGCUCUACCCAGCGUGGCAAAGUGGCUGUGGCUAGACUGCCUCUCUGGACUCCUCGUCACUCAGCAGGGCAUCUCUGAGAGAAAUGCC [U12C A57G A64U A67C U108C],0
17,UACGUAGGUGGCUUUCCCCUGAUAGUGCUAAGGGGGCCUGGAAGUUUGGACUGGGCGGAGCUCAACACGGCGUGGCAAAGUGGCUGUGGCUAGACUGCCUCUCUGGGUUCCUCGUCACCCAGAAGGGCAUCUCUGAGAGAAAUGCC [U12C A57G A69G A107G U119C C123A],0
18,UACGUAGGUGGCUUUCCCCUGAUAGUGCUAAGGGGGCCUGGAAGUUUGGACUGGGCGGAGCUCAACACAGCGAGGCAAUGUGGCUGUGGCUAGACUGCCUCUCUGGAUUCCUCGUCACUCUGCAGGGCAUCUCUGAGAGAAAUGCC [U12C A57G U73A A79U A121U],0.89
19,UACGUAGGUGGCUUUCCCCUGAUAGUGCUAAGGGGGCCUGGAAGUUUGGACUGGGCGGAGCUCAACACAGCGUGGCAAAGUGGCUGUGGCUAGACUGCCUCUCUGGAUUCCUCGUCACCCAGCAGGGCAUCUCUGAGAGAAAUGCC [U12C A57G U119C],0.63
20,UACGUAGGUGGCUUUCCCCUGAUAGUGCUAAGGGGGCCUGGAAGUUUGGACUGGGCUGAGCUCAACGCAGCGUGGCAAAGUGGCUGUGGCUAGACUGCCUCUCUGGAUUCCUCGUCACUCAGCAGGGCAUCUCUGAGAGAAAUGCC [U12C A57U A67G],0
